Hit rate of the full screen: of about 310,000 compounds, about 2,200 (0.71%) showed an effect of 50% or more. Effects have a minus sign here. This is one part of the list.
target: human ether-à-go-go-related gene (hERG) potassium channel (human, UniProt Q12809); assay: primary screen, population patch clamp on CHO cells stably expressing hERG
Sequence (Q12809 whole entry, looked up): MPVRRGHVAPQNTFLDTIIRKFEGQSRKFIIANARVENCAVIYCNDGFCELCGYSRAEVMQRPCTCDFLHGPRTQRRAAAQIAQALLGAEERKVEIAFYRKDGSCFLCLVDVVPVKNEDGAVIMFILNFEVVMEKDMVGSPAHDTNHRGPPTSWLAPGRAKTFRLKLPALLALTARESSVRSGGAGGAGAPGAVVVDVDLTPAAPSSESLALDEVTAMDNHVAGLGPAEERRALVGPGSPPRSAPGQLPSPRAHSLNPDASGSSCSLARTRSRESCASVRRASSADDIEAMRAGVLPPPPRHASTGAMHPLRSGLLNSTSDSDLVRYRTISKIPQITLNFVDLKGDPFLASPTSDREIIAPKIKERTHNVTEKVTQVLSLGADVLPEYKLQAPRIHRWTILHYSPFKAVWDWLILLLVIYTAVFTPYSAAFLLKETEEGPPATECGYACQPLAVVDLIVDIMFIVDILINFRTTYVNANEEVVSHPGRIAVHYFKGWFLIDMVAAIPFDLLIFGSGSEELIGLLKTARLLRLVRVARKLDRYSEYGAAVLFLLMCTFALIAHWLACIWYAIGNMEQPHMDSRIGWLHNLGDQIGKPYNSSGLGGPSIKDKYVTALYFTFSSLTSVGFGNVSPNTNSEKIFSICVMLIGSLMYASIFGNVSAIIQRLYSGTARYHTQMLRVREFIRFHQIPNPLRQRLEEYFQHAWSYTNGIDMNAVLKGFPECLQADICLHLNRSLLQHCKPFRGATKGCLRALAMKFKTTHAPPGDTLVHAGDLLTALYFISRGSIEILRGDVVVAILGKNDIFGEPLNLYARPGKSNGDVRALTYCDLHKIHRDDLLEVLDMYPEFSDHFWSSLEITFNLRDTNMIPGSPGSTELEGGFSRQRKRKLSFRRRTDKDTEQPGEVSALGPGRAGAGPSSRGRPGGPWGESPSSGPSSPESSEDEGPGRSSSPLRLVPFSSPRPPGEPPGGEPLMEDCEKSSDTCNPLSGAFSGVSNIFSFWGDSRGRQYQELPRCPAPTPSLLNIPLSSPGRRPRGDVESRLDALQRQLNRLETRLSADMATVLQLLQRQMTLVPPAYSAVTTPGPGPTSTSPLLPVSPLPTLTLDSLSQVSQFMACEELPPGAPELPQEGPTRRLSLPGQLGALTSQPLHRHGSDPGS

| SMILES | hERG current change (%, negative = inhibition) at 1uM [%] |
| --- | --- |
| CC1CN(C(=O)c2cc3cc(Cl)cc(Cl)c3oc2=O)CC(C)O1 (stereo not drawn) | 3.75 |
| COCCCN(Cc1ccccn1)S(=O)(=O)Cc1ccccc1 | 5.78 |
| COc1ccc(/C=N/NC(=O)Cn2cnc3c2c(=O)n(C)c(=O)n3C)c(OC)c1OC | 8.56 |
| O=S(=O)(NCc1ccccc1)[C@@H]1CC2C=CC1C2 (stereo partly drawn) | 7.63 |
| CCOC(=O)c1c(C)n(C)c2ccc(OC(=O)c3ccc([N+](=O)[O-])cc3)cc12 | 11.2 |
| Cc1cc(NC(=O)CSc2nnc(C)n2-c2ccccc2)no1 | 14.6 |
| Nc1nc(NCc2ccco2)nc(N2CCCC2)c1[N+](=O)[O-] | 4.06 |
| CCNc1ccc(S(=O)(=O)N(C)C)cc1NCC(=O)Nc1ccc(Br)cc1F | -6.42 |
| O=C(C1=NN[C@@H]2C(=O)N(Cc3ccccc3)C(=O)[C@H]12)c1ccc(F)cc1 | 6.21 |
| Cc1cc2ccccn2c1C(=O)c1ccccc1Br | 10.6 |
| CC(OC(=O)c1cccc(S(=O)(=O)N2CCCC2)c1)C(=O)NC1CCCCC1C (stereo not drawn) | 10.5 |
| Cc1cc(/C=C(\C#N)C(=O)O)c(C)n1CC(C)C | 15 |
| COc1cccc(COC(=O)c2sc3nc4n(c(=O)c3c2C)CCC4)c1OC | 11.4 |
| C1CCCCCC2(CCCCC1)OCC(CN1CCOCC1)O2 (stereo not drawn) | 8.66 |
| Cc1ccc2c(c1)N(CC(=O)NCc1ccco1)C(=O)C(C(C)C)O2 (stereo not drawn) | 11.4 |
| CCCCCCCNC(=O)C1(CC2CC(c3cccc(Br)c3)=NO2)CCNCC1 (stereo not drawn) | -36.1 |
| CCOC(=O)Cn1c(=O)oc2cc(S(=O)(=O)N3CCn4c3nc3ccccc34)ccc21 | -0.238 |
| O=C(O)C1Cc2[nH]cnc2C(c2cccc([N+](=O)[O-])c2)N1 (stereo not drawn) | 8.6 |
| CCCc1nc2ccc(NC(=O)c3ccco3)cc2c(=O)n1Cc1ccc(Cl)cc1 | -6.18 |
| CC(C)(C)c1ccc(OCc2ccc(C(=O)NCc3cccnc3)o2)cc1 | 9.88 |
| C=CCNC(=O)c1onc(CSc2ccc(Cl)cc2)c1C(=O)NCC=C | -0.357 |

| SMILES | hERG current change (%, negative = inhibition) at 1uM [%] |
| --- | --- |
| CCN(CC)c1ccc(NC(=O)C2=CC=CN3CCS(=O)(=O)N=C23)cc1 | 13.4 |
| CCOC(=O)c1c(C)oc2c1cc(O)c1ccccc12 | 4.59 |
| CC12CC3CC(C)(C1)CC(Nc1nc(N4CCOCC4)nc4ccccc14)(C3)C2 | 11.2 |
| COc1cccc2cc(/C(=N/O)c3ccccc3)oc12 | -16.4 |
| CCOC(=O)Cn1cnc2scc(-c3ccccc3)c2c1=O | 12 |
| Cc1ccc(S(=O)(=O)NC(CC(=O)O)c2ccccc2)cc1 (stereo not drawn) | 14 |
| OCCNc1nc2nonc2nc1NCCO | 8.87 |
| Cc1ccc(C(=O)Nc2cccc(NC(=O)c3ccc(C)c([N+](=O)[O-])c3)n2)cc1[N+](=O)[O-] | 13.2 |
| CCOC(=O)/C=C1\SCC(=O)N1Cc1nnc(-c2ccccc2Br)o1 | 6.69 |
| O=C(CSc1nnc(CNC(=O)c2cccc(C(F)(F)F)c2)o1)NCC1CCCO1 (stereo not drawn) | 14.7 |
| O=C(NCc1ccccc1F)C1CCCN1C(=O)Nc1ccccc1 (stereo not drawn) | 8.87 |
| CCOc1ncccc1C(=O)Nc1cc(C(F)(F)F)ccc1N1CCOCC1 | 7.4 |
| COCCN(C(=O)CSc1nnc(Nc2ccc(C)cc2)s1)c1c(N)n(CC(C)C)c(=O)[nH]c1=O | -2.82 |
| CCOc1ccc(S(=O)(=O)Nc2ccc(C(=O)N/N=C(\C)c3ccc(-n4ccnc4)cc3)cc2)cc1 | 1.26 |
| COC(=O)C1=C(c2c(C)noc2C)C[C@@H]2CC[C@H]1N2C(=O)NC(C)C | 7.13 |
| O=C(Nc1c(Cl)ccc2nsnc12)c1ccc([N+](=O)[O-])o1 | 8.79 |
| COc1ccc(C(=O)C2CCCN(Cc3cn(C)nc3-c3ccccc3)C2)cc1F (stereo not drawn) | -19.1 |
| CCOC(=O)CSc1nc2ccsc2c(=O)n1C1CCN(C(=O)OCC)CC1 | -4.96 |
| COc1ccc(NC(=O)c2ccc(Cl)nc2)cc1S(=O)(=O)N1CCCCC1 | -36.4 |
| COc1ccccc1NS(=O)(=O)c1ccc(NC(=O)c2nc3nc(C)cc(C(F)F)n3n2)cc1 | 5.18 |
| Cc1ccc(C)c(NC(=O)C2CCCN(S(=O)(=O)c3ccc4[nH]c(=O)ccc4c3)C2)c1 (stereo not drawn) | 5.83 |

| SMILES | hERG current change (%, negative = inhibition) at 1uM [%] |
| --- | --- |
| CCOC(=O)C1=C(C)NC(=O)NC1c1ccc(OCC(=O)N2CCCCC2)cc1 (stereo not drawn) | 13.3 |
| CC(C)(C)NS(=O)(=O)c1ccc(OCC(=O)NCc2ccco2)cc1 | 10.4 |
| COc1cccc(/C=N/Nc2nc3ccccc3[nH]2)c1O | 10.7 |
| O=C(NCc1ccc(Cl)cc1)C(=O)NCC1OCCN1S(=O)(=O)c1cc(F)ccc1F (stereo not drawn) | 14.3 |
| O=C(NCCc1ccccc1)Oc1ccc(Cl)cc1 | 11.1 |
| Cc1ccc(C)c2sc(N3CCN(C(=O)c4ccc([N+](=O)[O-])o4)CC3)nc12 | -5.85 |
| COc1ccc(CCN(C(=O)COc2ccccc2)c2nc(-c3ccccc3)cs2)cc1OC | 3.77 |
| COc1cc(NC(=O)Cn2cnc3ccccc3c2=O)c(OC)cc1Cl | 14.1 |
| Cc1noc(NS(=O)(=O)c2ccc(NC(=O)C(CC(C)C)N3C(=O)c4ccccc4C3=O)cc2)c1C (stereo not drawn) | 10.9 |
| Cc1ccc(OCC(=O)c2cc(C)n(C)c2C)c([N+](=O)[O-])n1 | -3.31 |
| Cc1ccc(S(=O)(=O)N(C)c2ccc(OCC(=O)Nc3nc4ccccc4s3)cc2)cc1 | 16.3 |
| O=C(CSc1ccc2c(c1)OCCO2)NCCN1C(=O)CSC1=O | 12.8 |
| COc1ccc2oc(C(=O)OCC(=O)NC(C)c3ccccc3)c(C)c2c1 (stereo not drawn) | -10.5 |
| Clc1ccc2c(c1)Nc1ccccc1CC2 | 6.15 |
| O=C(O)CCC(=O)Nc1ccc(C(=O)OC2CCCCC2)cc1 | 10.7 |
| Cc1ccc(NS(=O)(=O)c2ccc(C(=O)N3CCCN(C)CC3)cc2)cc1 | -0.822 |
| CCCOc1ccc(N2C(=O)CC(N3CCN(c4ccccc4F)CC3)C2=O)cc1 (stereo not drawn) | 5.47 |
| COc1ccc(CCNC(=O)c2ccc3nc4cc(Cl)ccc4c(=O)n3c2)cc1OC | 11.7 |
| Cc1ccccc1CSc1ccc2nnc(-c3ccccn3)n2n1 | -50.9 |
| CC#CC[N+](C)(CC#CC)CC(=O)c1ccccc1.[Br-] | 17.9 |
| O=C(CNC1CCCCCC1)Nc1ccccc1N1CCCCC1.O=C(O)C(=O)O | 14.9 |

| SMILES | hERG current change (%, negative = inhibition) at 1uM [%] |
| --- | --- |
| Cc1nn(-c2ccccc2)cc1/C=N/O | 4.39 |
| O=c1cc(O)c2sc(Nc3cccc(C(F)(F)F)c3)nc2[nH]1 | 3.21 |
| COc1cc(C2CC(=O)Oc3c2c(=O)n(C)c2ccccc32)cc(OC)c1OC (stereo not drawn) | 9.93 |
| Cn1ncc(Cl)c1C(=O)N/N=C/c1cc2c(cc1[N+](=O)[O-])OCO2 | 0.963 |
| CC(C)c1nc2c(c(=O)n(C)c(=O)n2C)n1C | 3.41 |
| CC(C)N(CCNC(=O)c1ccc(NC2=NC3CS(=O)(=O)CC3S2)cc1)Cc1ccco1 (stereo not drawn) | 12.1 |
| O=C(NCC12CC3CC(CC(C3)C1)C2)c1nn2cccnc2c1Cl | 7.53 |
| COC(=O)c1ccc(/C=N/NC(=O)c2ccccc2Cl)cc1 | 13.7 |
| O=C(COc1ccc(-c2ccccc2)cc1)Nc1cccnc1 | 6.87 |
| CC(C)(C)n1nnnc1C(c1ccncc1)N1CCN(c2ccc(O)cc2)CC1 (stereo not drawn) | 9.15 |
| CC1=C(C(=O)OCc2ccccc2)C(c2ccc(Cl)cc2)NC(=O)N1CCCCCC(=O)O (stereo not drawn) | 15.4 |
| Cc1cc(O)c(C(=O)/C=C/c2c(F)c(F)c(F)c(F)c2F)c(=O)o1 | 16.1 |
| CCOc1ccc(NC(=O)c2ccccc2NS(=O)(=O)c2ccc(F)cc2)c([N+](=O)[O-])c1 | 14.2 |
| N#CCCN(C(=O)COC(=O)c1ccc2c(c1)NC(=O)CS2)c1ccc2c(c1)OCCO2 | 3.71 |
| COc1ccccc1C(=O)N=C1SC2CS(=O)(=O)CC2N1c1ccccc1 (stereo not drawn) | 12.7 |
| COc1ccc(N(C(=O)CNC(=O)c2cccs2)C(C(=O)NC2CCCC2)c2ccncc2)cc1 (stereo not drawn) | 3.16 |
| CCC(C)N(C(=O)CN1C(=O)NC2(CCc3ccccc32)C1=O)C1CCS(=O)(=O)C1 (stereo not drawn) | 9.15 |
| Cc1cc(C)cc(NC(=S)NCCSc2ccc(Cl)cc2)c1 | 4.41 |
| COc1ccc(-c2cc(-c3ccccc3)c(C#N)c(SCC(=O)Nc3ncc(C)s3)n2)cc1 | 17.9 |
| O=C(N/N=C\c1ccc(OC(=O)c2ccco2)cc1)c1ccc(Cl)cc1 | 7.3 |
| Nc1ccc(C(=O)N/N=C\c2ccc(OC(=O)c3ccccc3Cl)cc2)cc1 | 14.1 |
